B1: GPR68, Q15743 (parent)
chain: MGNITADNSSMSCTIDHTIHQTLAPVVYVTVLVVGFPANCLSLYFGYLQIKARNELGVYLCNLTVADLFYICSLPFWLQYVLQHDNWSHGDLSCQVCGILLYENIYISVGFLCCISVDRYLAVAHPFRFHQFRTLKAAVGVSVVIWAKELLTSIYFLMHEEVIEDENQHRVCFEHYPIQAWQRAINYYRFLVGFLFPICLLLASYQGILRAVRRSHGTQKSRKDQIQRLVLSTVVIFLACFLPYHVLLLVRSVWEASCDFAKGVFNAYHFSLLLTSFNCVADPVLYCFVSETTHRDLARLRGACLAFLTCSRTGRAREAYPLGAPEASGKSGAQGEEPELLTKLHPAFQTPNSPGSGGFPTGRLA

In data set [1] the parent is B1. Nature of the data set: cAMP reporter score (Enrich2 score, wild type = 0); higher = more signal; HEK293T, FACS bins.
The variants in data set [2] derive from B1. Nature of the data set: surface expression score (Enrich2 score, wild type = 0); higher = more signal; HEK293T, FACS bins.

Results on 31 variants are retold here after the GPR68 mutational scans of Howard et al. (2025).

Scores whose standard error is large were omitted. Not listed are two conditions whose scores span a narrow range. Names with del lack the residues named; names with ins carry added residues between the positions named. For part of these data: How much ogerin was present is not stated here.

Consider K330del, for which the cAMP reporter score is 0.196 in data set [1] (pH 5.5); 0.256 in data set [1] (pH 6); -0.066 in data set [1] (pH 6, modulator: ogerin). Besides, the surface expression score in data set [2] stood at 2.31.
In the case of L341_T342insG, the cAMP reporter score is -0.396 in data set [1] (pH 5.5); 1.34 in data set [1] (pH 6); -0.233 in data set [1] (pH 6.5, modulator: ogerin).
On to L341A, for which the cAMP reporter score in data set [1] (pH 5.5) amounted to 1.5; in data set [1] (pH 6) it was 0.345; in data set [1] (pH 6, modulator: ogerin), 1.77; in data set [1] (pH 6.5, modulator: ogerin) it was 0.925. For the same variant, the surface expression score in data set [2] came to 1.06.
On to L341S, for which the cAMP reporter score was -0.393 in data set [1] (pH 5.5) and -0.528 in data set [1] (pH 6). Also, the surface expression score in data set [2] is 0.62.
As to L341M, the cAMP reporter score in data set [1] (pH 5.5) worked out at 0.407; in data set [1] (pH 6), 0.688; in data set [1] (pH 6, modulator: ogerin) it was 0.679; in data set [1] (pH 6.5, modulator: ogerin), 0.556. The surface expression score in data set [2] stood at 1.03.
In the case of L341F, the cAMP reporter score in data set [1] (pH 5.5) was -0.079; in data set [1] (pH 6), 0.234; in data set [1] (pH 6, modulator: ogerin) it was 0.111; in data set [1] (pH 6.5, modulator: ogerin), 0.018. The surface expression score in data set [2] is -0.116.
Consider L341P, for which the cAMP reporter score in data set [1] (pH 5.5) was 0.082; in data set [1] (pH 6), 1.26; in data set [1] (pH 6, modulator: ogerin), -0.2; in data set [1] (pH 6.5, modulator: ogerin) it was 0.134. Moreover, the surface expression score in data set [2] turned out to be 0.48.
Consider L341R, for which the cAMP reporter score is 1.29 in data set [1] (pH 5.5); 0.642 in data set [1] (pH 6); 1.36 in data set [1] (pH 6, modulator: ogerin); 1.94 in data set [1] (pH 6.5, modulator: ogerin). The surface expression score in data set [2] came to 1.36.
L341T: the cAMP reporter score in data set [1] (pH 5.5) was 0.252; in data set [1] (pH 6.5, modulator: ogerin), -0.451.
Turning to L341D, the cAMP reporter score was 0.596 in data set [1] (pH 5.5); 2.22 in data set [1] (pH 6); 0.611 in data set [1] (pH 6, modulator: ogerin); -0.307 in data set [1] (pH 6.5, modulator: ogerin). Further, in data set [2], the surface expression score is 0.6.
For L341C the same measures were 0.228, -0.689, -0.359, -0.25 and 0.819.
Take L341E: the cAMP reporter score in data set [1] (pH 5.5) is 0.892; in data set [1] (pH 6), -0.06; in data set [1] (pH 6, modulator: ogerin), 1.43; in data set [1] (pH 6.5, modulator: ogerin) it was 0.342. Besides, the surface expression score in data set [2] was found to be 1.01.
For L341N the same measures were -0.409, -1.16, -0.297, -0.702 and 0.087.
Consider L341Q, for which the cAMP reporter score in data set [1] (pH 5.5) worked out at 0.641; in data set [1] (pH 6), 0.617; in data set [1] (pH 6, modulator: ogerin), 0.196; in data set [1] (pH 6.5, modulator: ogerin), 0.899. Further, in data set [2], the surface expression score worked out at 0.96.
With L341K, the cAMP reporter score in data set [1] (pH 5.5) was 0.635; in data set [1] (pH 6), 0.735; in data set [1] (pH 6, modulator: ogerin), 0.721; in data set [1] (pH 6.5, modulator: ogerin), 0.371. For the same variant, in data set [2], the surface expression score stood at 0.105.
In the case of L341Y, the cAMP reporter score was -0.306 in data set [1] (pH 5.5); -0.079 in data set [1] (pH 6); -0.11 in data set [1] (pH 6, modulator: ogerin); -0.555 in data set [1] (pH 6.5, modulator: ogerin). Also, in data set [2], the surface expression score worked out at 0.264.
Take L341V: the cAMP reporter score was found to be 1.36 in data set [1] (pH 5.5); 1.01 in data set [1] (pH 6); 1.9 in data set [1] (pH 6, modulator: ogerin); 1.77 in data set [1] (pH 6.5, modulator: ogerin). In addition, the surface expression score in data set [2] is 1.51.
Consider L341H, for which the cAMP reporter score amounted to 0.535 in data set [1] (pH 5.5); 0.049 in data set [1] (pH 6); 0.604 in data set [1] (pH 6, modulator: ogerin); 0.69 in data set [1] (pH 6.5, modulator: ogerin). Further, the surface expression score in data set [2] is 0.332.
Regarding L341W, the cAMP reporter score in data set [1] (pH 5.5) was 0.238; in data set [1] (pH 6) it was -0.364; in data set [1] (pH 6, modulator: ogerin) it was 0.47; in data set [1] (pH 6.5, modulator: ogerin), -0.209. For the same variant, in data set [2], the surface expression score was 0.349.
For L341G the same measures were 0.916, -0.069, 0.513, 1.24 and 1.4.
As for L341I, the cAMP reporter score is -0.358 in data set [1] (pH 5.5); 0.121 in data set [1] (pH 6); -0.765 in data set [1] (pH 6, modulator: ogerin); -0.627 in data set [1] (pH 6.5, modulator: ogerin). In addition, the surface expression score in data set [2] is -0.13.
Consider F348_Q349insGSG, for which the cAMP reporter score was 0.553 in data set [1] (pH 5.5); 0.059 in data set [1] (pH 6); 0.692 in data set [1] (pH 6, modulator: ogerin); 1.1 in data set [1] (pH 6.5, modulator: ogerin). The surface expression score in data set [2] was found to be 1.3.
As to G355_S356insGS, the cAMP reporter score in data set [1] (pH 5.5) was 0.27; in data set [1] (pH 6), 0.106; in data set [1] (pH 6, modulator: ogerin), 0.631; in data set [1] (pH 6.5, modulator: ogerin), 0.343. Besides, the surface expression score in data set [2] amounted to 0.739.
For P338del, the cAMP reporter score in data set [1] (pH 5.5) was 1.16; in data set [1] (pH 6), -0.338; in data set [1] (pH 6, modulator: ogerin), 0.584; in data set [1] (pH 6.5, modulator: ogerin), 0.318. For the same variant, the surface expression score in data set [2] turned out to be 0.083.
For Q349_T350del, the cAMP reporter score was 0.82 in data set [1] (pH 5.5); 0.002 in data set [1] (pH 6); 0.935 in data set [1] (pH 6, modulator: ogerin); 0.597 in data set [1] (pH 6.5, modulator: ogerin). The surface expression score in data set [2] worked out at 0.478.
As to K343_L344insG, the cAMP reporter score in data set [1] (pH 5.5) was -0.138; in data set [1] (pH 6) it was 0.312; in data set [1] (pH 6, modulator: ogerin), 0.237; in data set [1] (pH 6.5, modulator: ogerin) it was -0.398. In data set [2], the surface expression score worked out at 0.142.
As to S328_G329insGSG, the cAMP reporter score came to 0.378 in data set [1] (pH 5.5); 0.094 in data set [1] (pH 6); 0.291 in data set [1] (pH 6, modulator: ogerin); 0.67 in data set [1] (pH 6.5, modulator: ogerin). Further, the surface expression score in data set [2] turned out to be 0.585.
As to N352W, the cAMP reporter score in data set [1] (pH 5.5) is 0.951; in data set [1] (pH 6) it was -0.345; in data set [1] (pH 6, modulator: ogerin), 0.857; in data set [1] (pH 6.5, modulator: ogerin) it was 0.541. For the same variant, the surface expression score in data set [2] was -0.689.
As to N352A, the cAMP reporter score in data set [1] (pH 5.5) was 0.466; in data set [1] (pH 6), 0.159; in data set [1] (pH 6, modulator: ogerin), 0.472; in data set [1] (pH 6.5, modulator: ogerin) it was 0.581. Moreover, the surface expression score in data set [2] was 1.59.
With N352H, the cAMP reporter score in data set [1] (pH 5.5) turned out to be 0.372; in data set [1] (pH 6) it was 0.083; in data set [1] (pH 6, modulator: ogerin), 0.46; in data set [1] (pH 6.5, modulator: ogerin) it was 0.534. Moreover, the surface expression score in data set [2] was found to be 0.361.
With N352G, the cAMP reporter score was 1.26 in data set [1] (pH 5.5); -0.698 in data set [1] (pH 6); 0.641 in data set [1] (pH 6, modulator: ogerin); 0.798 in data set [1] (pH 6.5, modulator: ogerin). In addition, the surface expression score in data set [2] was determined as 0.546.
